Measured values taken from the supplement of paper PMC10126150.
Sequences with one replicate were seen in a single cluster, so their values are uncertain.

System: ATP
Assay: switch fluorescence ratio, 500 uM ATP over buffer (Cy3 cluster intensity, sum of 5 cycles each) (fold (ratio)); higher = stronger signal-on switching upon ATP binding; sequences stand for … in TCGTCGGCAGCGTCAGATGTGTATAAGAGACAGTTTTTTTTTTTTTTTTTTTTTTTTT…TC
Conditions: aptamer strand: ATP DNA aptamer (quencher-CACCTGGGGGAGTATTGCGGAGGAAGG + anchor), 100 nM annealed; ATP concentration: 500 uM; one replicate
Outline: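 Cy3-labelled switching-strand clusters on a modified Illumina MiSeq flow-cell were annealed to 100 nM quencher-labelled ATP aptamer and imaged first in selection buffer, then after 15 min with 500 uM ATP at 22 °C. NaOH stripping and re-annealing separated each of five buffer/ATP cycles, and clusters outside 100-1000 RFU were excluded. The fluorescence ratio sums target-cycle Cy3 intensity over buffer-cycle Cy3 intensity per cluster and averages it per switch-domain sequence.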
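Also: ATP exposure 15 min at 22 °C before imaging.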

With TTAGAGCCCG the switch fluorescence ratio was 0.949.

GATGATTTG was tested, and the switch fluorescence ratio was 0.916.

Work on ACTGGTACTT yielded a switch fluorescence ratio of 1.12.

With AATAGTTGG the switch fluorescence ratio was 0.997.

For CTATGGGCAC, the switch fluorescence ratio was 0.995.

Sequence CGATCGTTTT has a switch fluorescence ratio of 0.97.

Work on ACCTTGTAGG yielded a switch fluorescence ratio of 0.985.

For AGGTATTTCG, the switch fluorescence ratio was 0.962.

CAAGGGCACG was tested, and the switch fluorescence ratio was 1.04.

Work on AGGAGGGTAT yielded a switch fluorescence ratio of 0.981.

With AAAGCCGCGC the switch fluorescence ratio was 1.09.

For GGATTTCCCC, the switch fluorescence ratio was 1.02.

With CGTTATATGC the switch fluorescence ratio was 1.13.

TAGTCGCACC showed a switch fluorescence ratio of 1.05.

Sequence TTAAGCTAA has a switch fluorescence ratio of 0.996.

Work on TTGTAAAAAA yielded a switch fluorescence ratio of 1.04.

Sequence TTAGCCGGTT has a switch fluorescence ratio of 1.16.

TAGTAACGGA gave a switch fluorescence ratio of 0.991.

ATGTTCAGT was tested, and the switch fluorescence ratio was 0.977.

TTATAAGGAG showed a switch fluorescence ratio of 0.999.

Work on GAGCTGCTAC yielded a switch fluorescence ratio of 1.25.

Sequence CTACTTTAGG has a switch fluorescence ratio of 0.983.

In the case of GGTAAGCAGC, the switch fluorescence ratio is reported as 0.998.

In the case of GCAAAACGTG, the switch fluorescence ratio is reported as 1.06.

GCATTAGCAG gave a switch fluorescence ratio of 1.03.

ATGCCAAGGG gave a switch fluorescence ratio of 1.05.

Sequence TTAACTGATA has a switch fluorescence ratio of 1.07.

GAGAATTTCT showed a switch fluorescence ratio of 1.04.

AGTCGCGCTG showed a switch fluorescence ratio of 0.977.

In the case of GCCTCCGTAT, the switch fluorescence ratio is reported as 3.75.

In the case of TTTACTTGAC, the switch fluorescence ratio is reported as 1.11.

For ACCCTCGTTT, the switch fluorescence ratio was 0.972.

Sequence GTGGTTAAGT has a switch fluorescence ratio of 0.983.

Sequence ATCAAGGTAC has a switch fluorescence ratio of 1.12.

For GCAGACTAGA, the switch fluorescence ratio was 1.01.

With ATTTACGTCA the switch fluorescence ratio was 1.19.

Sequence CCGGACGATG has a switch fluorescence ratio of 1.09.

ATTATCTGC gave a switch fluorescence ratio of 1.01.

Sequence TTGATTCAAC has a switch fluorescence ratio of 1.02.

With GTAATAAACG the switch fluorescence ratio was 1.07.

In the case of GGTTCATAGG, the switch fluorescence ratio is reported as 1.02.

For GGTGTTTTGC, the switch fluorescence ratio was 0.993.

Work on AGACTATAC yielded a switch fluorescence ratio of 1.56.

CTCGCTATGA gave a switch fluorescence ratio of 1.65.

With TCGTGTAGAT the switch fluorescence ratio was 1.09.

In the case of GGACTGAGCA, the switch fluorescence ratio is reported as 1.06.

With TAAGACAGCC the switch fluorescence ratio was 1.16.

In the case of CGATGGGGAG, the switch fluorescence ratio is reported as 0.962.

Work on ACTTAGGATC yielded a switch fluorescence ratio of 1.07.

For CACCTGCAGA, the switch fluorescence ratio was 1.15.

TGGCCGTCCG was tested, and the switch fluorescence ratio was 1.01.

With CACCGGTTTG the switch fluorescence ratio was 0.998.

GAGTTAT was tested, and the switch fluorescence ratio was 1.01.

CGAATACAGC showed a switch fluorescence ratio of 0.984.

TTTACTCAG gave a switch fluorescence ratio of 1.04.

Sequence AAGTCATAGT has a switch fluorescence ratio of 0.995.

In the case of GCGGGGGCTG, the switch fluorescence ratio is reported as 1.05.

Sequence CCTGTTGCTG has a switch fluorescence ratio of 0.995.

GGGCTATCCA showed a switch fluorescence ratio of 0.965.

TGATGTGAAG was tested, and the switch fluorescence ratio was 0.996.

In the case of TCTTGAATTG, the switch fluorescence ratio is reported as 0.97.

With GTTAACTGAC the switch fluorescence ratio was 1.06.

AGTGGGATTC showed a switch fluorescence ratio of 1.02.

For GAGTTGACTT, the switch fluorescence ratio was 1.04.

With GAGATACAAG the switch fluorescence ratio was 0.968.

TGTAAAAAAT gave a switch fluorescence ratio of 0.976.

CTGTGTTGGC gave a switch fluorescence ratio of 1.01.

For CTCTCATGGG, the switch fluorescence ratio was 1.05.

For AATGTCACAC, the switch fluorescence ratio was 1.02.

For CAGAGGAGTC, the switch fluorescence ratio was 0.942.

TTGTTCAAGA gave a switch fluorescence ratio of 0.959.

With GAAGTAGCGC the switch fluorescence ratio was 1.05.

For GGCCTGGTAG, the switch fluorescence ratio was 0.989.

In the case of TCTATCACAG, the switch fluorescence ratio is reported as 0.973.

For GACAATACAG, the switch fluorescence ratio was 1.01.

Work on GAAGGGCTTA yielded a switch fluorescence ratio of 0.987.

Sequence TTTGGTTATC has a switch fluorescence ratio of 0.982.

TGAAACGCCA showed a switch fluorescence ratio of 1.11.

Work on TTGGATGCTA yielded a switch fluorescence ratio of 0.979.

With GGTGATCCGG the switch fluorescence ratio was 0.967.

For TTTTCCCGT, the switch fluorescence ratio was 0.996.

GCCAGAATTT gave a switch fluorescence ratio of 0.991.

TGTAAGAGTT was tested, and the switch fluorescence ratio was 0.979.

TACCGGTTCA was tested, and the switch fluorescence ratio was 0.97.

With GTGAGAATGA the switch fluorescence ratio was 1.09.

CGGAAATGAC gave a switch fluorescence ratio of 1.12.

CCCAGCCACC showed a switch fluorescence ratio of 1.26.

For GAGTATTGT, the switch fluorescence ratio was 0.963.

CAGTGTGCCA gave a switch fluorescence ratio of 1.01.

Sequence ATGTCTAATG has a switch fluorescence ratio of 1.04.

CCCGTGTTTG gave a switch fluorescence ratio of 1.03.

For CTGGCGAGAG, the switch fluorescence ratio was 1.04.

CACACTGCGG was tested, and the switch fluorescence ratio was 1.02.

Sequence TATCGGGCAG has a switch fluorescence ratio of 1.02.

Sequence ATAAGTTAG has a switch fluorescence ratio of 1.01.

Work on CTCCCACACA yielded a switch fluorescence ratio of 1.3.

In the case of AGGGCAATTC, the switch fluorescence ratio is reported as 3.29.

In the case of ACAGTCAAGT, the switch fluorescence ratio is reported as 1.04.

GTCATTTGGT gave a switch fluorescence ratio of 1.02.

With GGTTTTCAAG the switch fluorescence ratio was 0.985.

TGTTTTCGCC gave a switch fluorescence ratio of 1.03.

With ACATTATCTC the switch fluorescence ratio was 1.01.

Sequence GGGGGTTCTC has a switch fluorescence ratio of 0.99.

CGACGCGTAG gave a switch fluorescence ratio of 2.1.

GTGTCTCGAA gave a switch fluorescence ratio of 0.968.

Sequence GTGAACAACC has a switch fluorescence ratio of 1.03.

TAGCGGTCTT was tested, and the switch fluorescence ratio was 0.952.

Sequence CATCGCACGT has a switch fluorescence ratio of 1.28.

Work on TGGTGCTGTA yielded a switch fluorescence ratio of 1.01.

With GGAGACGTAC the switch fluorescence ratio was 1.23.

In the case of GGGCTCACAG, the switch fluorescence ratio is reported as 0.993.

Work on GTAGCTGACT yielded a switch fluorescence ratio of 0.985.

Work on CTACTCATGG yielded a switch fluorescence ratio of 1.01.

With ACATGTTTAT the switch fluorescence ratio was 1.08.

In the case of TACATTGGAG, the switch fluorescence ratio is reported as 0.989.

CAAAAGCGGC was tested, and the switch fluorescence ratio was 1.13.

With TAATATAATG the switch fluorescence ratio was 1.01.

TCTGGCGTCT was tested, and the switch fluorescence ratio was 1.03.

In the case of GCCTACGTGA, the switch fluorescence ratio is reported as 2.68.

TCAGTGGTAG showed a switch fluorescence ratio of 1.

In the case of TGTGTGGCTT, the switch fluorescence ratio is reported as 0.978.

CGGATTTTTG gave a switch fluorescence ratio of 0.959.

With GAACCTCAA the switch fluorescence ratio was 1.

Work on AATTTTAAA yielded a switch fluorescence ratio of 0.979.

Work on AAGCACATAT yielded a switch fluorescence ratio of 1.46.

AACTGTTATG gave a switch fluorescence ratio of 1.02.

Sequence GCCGTTAGAC has a switch fluorescence ratio of 1.24.

Sequence TATAAGTTGG has a switch fluorescence ratio of 0.983.

CACCAACCCA showed a switch fluorescence ratio of 1.15.

For GGAATACCTT, the switch fluorescence ratio was 1.1.

Work on GATTCGCAAC yielded a switch fluorescence ratio of 4.41.

In the case of GCCTATTGTC, the switch fluorescence ratio is reported as 0.952.

AGATCTCCTG gave a switch fluorescence ratio of 0.991.

Work on AAATCTCGGG yielded a switch fluorescence ratio of 0.983.

For AGACTGTTTT, the switch fluorescence ratio was 0.983.

TTTCACTAGC gave a switch fluorescence ratio of 1.02.

ATCTCGTGAG showed a switch fluorescence ratio of 1.

AGAACAATTT showed a switch fluorescence ratio of 1.

For ATAGACAAGG, the switch fluorescence ratio was 0.969.

Sequence TGCTCATTAG has a switch fluorescence ratio of 0.976.

For CGAATTGGCT, the switch fluorescence ratio was 1.07.

With GAAGACTTGT the switch fluorescence ratio was 0.981.

Sequence GGCGAGCAAC has a switch fluorescence ratio of 1.06.

TAACGCCTGG gave a switch fluorescence ratio of 1.01.

GGCCGCCTGT was tested, and the switch fluorescence ratio was 1.03.

In the case of ACGTGCTGAA, the switch fluorescence ratio is reported as 0.984.

Sequence GTCGCTATGC has a switch fluorescence ratio of 2.1.

For CTTTTTTTG, the switch fluorescence ratio was 0.955.

With AAAGTACAGT the switch fluorescence ratio was 1.17.

Sequence TCATATGGAA has a switch fluorescence ratio of 1.06.

Sequence CATTTTACGG has a switch fluorescence ratio of 0.989.

Sequence CGTTTAATGT has a switch fluorescence ratio of 1.09.

In the case of GGAGGGAAG, the switch fluorescence ratio is reported as 0.991.

In the case of CTGGGCACAA, the switch fluorescence ratio is reported as 1.01.

GATGTTCGAT gave a switch fluorescence ratio of 1.02.

With TTATGATATC the switch fluorescence ratio was 0.964.

In the case of AATTCCGTGT, the switch fluorescence ratio is reported as 1.01.

Work on TGCCTCATTA yielded a switch fluorescence ratio of 1.

Work on CCCGGTGCTT yielded a switch fluorescence ratio of 2.07.

Sequence TCTCTGGGGT has a switch fluorescence ratio of 1.06.

Work on AGTTCCGCAC yielded a switch fluorescence ratio of 5.05.

ATGGTTGGGC showed a switch fluorescence ratio of 0.967.

Work on GCTGATAGGT yielded a switch fluorescence ratio of 0.971.

Sequence AGGAACGGCT has a switch fluorescence ratio of 0.993.

AGTGAGTTCT was tested, and the switch fluorescence ratio was 0.994.

In the case of ATTCCCTTTA, the switch fluorescence ratio is reported as 1.04.

AACAGGTATG gave a switch fluorescence ratio of 1.02.

TATGCTTCTT was tested, and the switch fluorescence ratio was 1.

AATTATCCCT was tested, and the switch fluorescence ratio was 1.05.

ACGCGGCGCC gave a switch fluorescence ratio of 1.04.

For AGGTGCCACT, the switch fluorescence ratio was 0.992.

For TCTTGCTCAT, the switch fluorescence ratio was 0.997.

Sequence CAAGCACCGC has a switch fluorescence ratio of 0.993.

TCAGGGTAAA was tested, and the switch fluorescence ratio was 1.01.

GGTAGCGCGG showed a switch fluorescence ratio of 0.968.

CTGGAAGGGA gave a switch fluorescence ratio of 1.02.

For CGGCCTGACC, the switch fluorescence ratio was 1.06.

ATCAAGTAAG gave a switch fluorescence ratio of 1.03.

TAAAGAAGCC was tested, and the switch fluorescence ratio was 1.03.

Sequence ACTCAGTAGC has a switch fluorescence ratio of 1.12.

With TAGATTTAGG the switch fluorescence ratio was 0.991.

Work on TTTTGACCCC yielded a switch fluorescence ratio of 1.14.

In the case of ACCTTTGATT, the switch fluorescence ratio is reported as 1.03.

For AGAACACGGG, the switch fluorescence ratio was 0.996.

GAGAGGGTT showed a switch fluorescence ratio of 1.02.

With CGTACTATG the switch fluorescence ratio was 0.994.

GTAATCCACC was tested, and the switch fluorescence ratio was 1.06.

Work on AGTTGCGCTT yielded a switch fluorescence ratio of 0.988.

GCGAGGTGGA was tested, and the switch fluorescence ratio was 1.01.

AAATAGGCAC gave a switch fluorescence ratio of 1.02.

CACAGGTGTA was tested, and the switch fluorescence ratio was 4.18.

Sequence CGTGTCTTGG has a switch fluorescence ratio of 1.01.

GGACTGCATT gave a switch fluorescence ratio of 1.06.

ACTTGGACCG was tested, and the switch fluorescence ratio was 1.06.

Sequence GATGGCTGAA has a switch fluorescence ratio of 1.02.

In the case of TATTTTCTAT, the switch fluorescence ratio is reported as 0.986.

In the case of ATGTATGAGA, the switch fluorescence ratio is reported as 0.988.

TAGTCATTTT showed a switch fluorescence ratio of 0.996.

CCAACCTTTG was tested, and the switch fluorescence ratio was 1.09.

TTACGGCATT gave a switch fluorescence ratio of 1.11.

Sequence GTAGGAAGG has a switch fluorescence ratio of 0.984.
